# Source: the supplement of paper PMC8728848
# The other results are listed elsewhere or left out.
# B1: PitA (Streptococcus oralis), G3F8D8 (protein)
# chain: MNIRFDFKKVQIIARRLVTLLAILFLCAPISLLNADSTTEPQTTLHKTITPISGQDDKYELSLDITSKLGTETQTDPLDVVLVADLSGSMQNQDVQSFDGRTISRIDALKNTLRGTNGRKGLIDTILSNSNNRLSMVGFGGKIDNKKVDQYWDGNKWRLFRPYWPYERMTKYYDGVSPWDDANTILGWSNNARAAKTAVYNMSIAGGNSIGTESGIGTGTNIGAGLTLANQLMGSARSNAKKVVILLSDGFANMVYDANGYTIYNYNNEDPNIETAPQWFWDRLNNNLNSLSYSLAPTLDGFYSIKFRYSNNVDSITSLQYYMRQHNASIPNEIFSANDEDQLRDSFKDITDKILPLGIHHVSIKDVLSKYVQLLPNGSSEFRVVKEKDGSSEILIENQVTFDTKTTSEGLVEVTAKFSPNYSLEDGARYVLKFTVTSSQEALDAIAGDKKLEAGDAEGSDVNKLYSNKGASVTYSYGIGNSQTKTKEYSDNPTFKPSDPLTVPVEVEWQGVTGARTVITADQPSNVELKLVQKNKNGGSDNQDYRKTNVNVSKNVSNETRNFEKVAKGYQYDLIAPDVPAFTKEIKNVGTESKPSFKVIYKQLPSLTIKKVLEAENNLNKEFRIKVKLTSPDSKPLNGTFGEITVVNGEAEIRVEKRKRWEGILSYLPRGTHYKVEEEAASTNGYHVTYENQEGDLNKDETSIVTNHKLPSLSVTKKVTGVFANLLKSFKITINIRDAQNSPLNGTYTATVNNKRTPLQFTNGRASIDLNKDQTIKIYGLPLDSHYTVEEESNSSRGYQVSYENQEGKLDGDKSATVTNNKNSVPETGVDFLSSTLMLGIILPLGGIFFTILLGYLVVHRRK
# Experiments:
# Test in all cases: glycan array binding signal (z-score within array); higher = stronger binding
# Conditions in all cases: glycan notation: IUPAC condensed, linker removed
# Fuc(a1-2)Gal(b1-4)Glc = biological target: Fuc(a1-2)Gal(b1-4)Glc
# In short: (§1)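 Glycan array binding is given as a within-array Z-score, which can be read as non-binding when negative. The arrays, 3228 of them, came from the Consortium for Functional Glycomics database and were retained only where the protein sequence was available. Z-scores were averaged across arrays of the same protein sequence at different concentrations or buffers and across linkers.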
# Fuc(a1-2)Gal(b1-4)Glc6S = biological target: Fuc(a1-2)Gal(b1-4)Glc6S
# In short: as §1
# Fuc(a1-2)Gal(b1-4)GlcNAc = biological target: Fuc(a1-2)Gal(b1-4)GlcNAc
# In short: as §1
# [1] = biological target: Fuc(a1-2)Gal(b1-4)GlcNAc(b1-2)Man
# In short: as §1
# [2] = biological target: Fuc(a1-2)Gal(b1-4)GlcNAc(b1-2)Man(a1-3)[Fuc(a1-2)Gal(b1-4)GlcNAc(b1-2)Man(a1-6)]Man(b1-4)GlcNAc(b1-4)GlcNAc
# In short: as §1
# [3] = biological target: Fuc(a1-2)Gal(b1-4)GlcNAc(b1-2)Man(a1-3)[Fuc(a1-2)Gal(b1-4)GlcNAc(b1-2)Man(a1-6)]Man(b1-4)GlcNAc(b1-4)[Fuc(a1-6)]GlcNAc
# In short: as §1
# [4] = biological target: Fuc(a1-2)Gal(b1-4)GlcNAc(b1-2)[Fuc(a1-2)Gal(b1-4)GlcNAc(b1-4)]Man(a1-3)[Fuc(a1-2)Gal(b1-4)GlcNAc(b1-2)Man(a1-6)]Man(b1-4)GlcNAc(b1-4)GlcNAc
# In short: as §1
# [5] = biological target: Fuc(a1-2)Gal(b1-4)GlcNAc(b1-3)Gal(b1-4)GlcNAc
# In short: as §1
# [6] = biological target: Fuc(a1-2)Gal(b1-4)GlcNAc(b1-3)Gal(b1-4)GlcNAc(b1-3)Gal(b1-4)GlcNAc
# In short: as §1
# [7] = biological target: Fuc(a1-2)Gal(b1-4)GlcNAc(b1-3)GalNAc
# In short: as §1
# [8] = biological target: Fuc(a1-2)Gal(b1-4)GlcNAc(b1-3)[Fuc(a1-2)Gal(b1-4)GlcNAc(b1-6)]GalNAc
# In short: as §1
# [9] = biological target: Fuc(a1-2)Gal(b1-4)GlcNAc(b1-6)GalNAc
# In short: as §1
# [10] = biological target: Fuc(a1-2)Gal(b1-4)GlcNAc6S
# In short: as §1
# [11] = biological target: Fuc(a1-2)Gal(b1-4)[Fuc(a1-3)]GlcNAc
# In short: as §1
# [12] = biological target: Fuc(a1-2)Gal(b1-4)[Fuc(a1-3)]GlcNAc(b1-2)Man(a1-3)[Fuc(a1-2)Gal(b1-4)[Fuc(a1-3)]GlcNAc(b1-2)Man(a1-6)]Man(b1-4)GlcNAc(b1-4)GlcNAc
# In short: as §1
# [13] = biological target: Fuc(a1-2)Gal(b1-4)[Fuc(a1-3)]GlcNAc(b1-2)Man(a1-6)[Fuc(a1-2)Gal(b1-4)[Fuc(a1-3)]GlcNAc(b1-2)Man(a1-3)]Man(b1-4)GlcNAc(b1-4)[Fuc(a1-6)]GlcNAc
# In short: as §1
# [14] = biological target: Fuc(a1-2)Gal(b1-4)[Fuc(a1-3)]GlcNAc(b1-2)[Fuc(a1-2)Gal(b1-4)[Fuc(a1-3)]GlcNAc(b1-4)]Man(a1-3)[Fuc(a1-2)Gal(b1-4)[Fuc(a1-3)]GlcNAc(b1-2)Man(a1-6)]Man(b1-4)GlcNAc(b1-4)GlcNAc
# In short: as §1
# [15] = biological target: Fuc(a1-2)Gal(b1-4)[Fuc(a1-3)]GlcNAc(b1-3)Gal(b1-4)[Fuc(a1-3)]GlcNAc
# In short: as §1
# [16] = biological target: Fuc(a1-2)Gal(b1-4)[Fuc(a1-3)]GlcNAc(b1-3)Gal(b1-4)[Fuc(a1-3)]GlcNAc(b1-3)Gal(b1-4)[Fuc(a1-3)]GlcNAc
# In short: as §1
# [17] = biological target: Fuc(a1-2)Gal(b1-4)[Fuc(a1-3)]GlcNAc(b1-3)GalNAc
# In short: as §1
# [18] = biological target: Fuc(a1-2)Gal(b1-4)[Fuc(a1-3)]GlcNAc(b1-3)[Neu5Ac(a2-6)Gal(b1-4)GlcNAc(b1-6)]Gal(b1-4)Glc
# In short: as §1
# [19] = biological target: Fuc(a1-2)Gal6S(b1-3)GlcNAc
# In short: as §1
# [20] = biological target: Fuc(a1-2)Gal6S(b1-3)GlcNAc6S
# In short: as §1
binder,measurement,setting,value
B1,glycan array binding signal (z-score),Fuc(a1-2)Gal(b1-4)Glc,-0.507
same,glycan array binding signal (z-score),Fuc(a1-2)Gal(b1-4)Glc6S,-0.326
same,glycan array binding signal (z-score),Fuc(a1-2)Gal(b1-4)GlcNAc,-0.676
same,glycan array binding signal (z-score),[1],-0.365
same,glycan array binding signal (z-score),[2],0.147
same,glycan array binding signal (z-score),[3],1.5
same,glycan array binding signal (z-score),[4],2.11
same,glycan array binding signal (z-score),[5],-0.256
same,glycan array binding signal (z-score),[6],-0.384
same,glycan array binding signal (z-score),[7],0.053
same,glycan array binding signal (z-score),[8],2
same,glycan array binding signal (z-score),[9],0.185
same,glycan array binding signal (z-score),[10],-0.17
same,glycan array binding signal (z-score),[11],-0.371
same,glycan array binding signal (z-score),[12],0.076
same,glycan array binding signal (z-score),[13],1.99
same,glycan array binding signal (z-score),[14],2.19
same,glycan array binding signal (z-score),[15],-0.469
same,glycan array binding signal (z-score),[16],0.844
same,glycan array binding signal (z-score),[17],7.27
same,glycan array binding signal (z-score),[18],-0.634
same,glycan array binding signal (z-score),[19],-0.656
same,glycan array binding signal (z-score),[20],0.003
